Laboratory results reported in the supplement of paper PMC3334620.
In all, about 33,000 sequences were measured (“E-score (-0.5 to 0.5)”: median about -0.035, highest 2% from about 0.35 on). Some of the results follow.

The sequences below were run against T1, Pdr3 (UniProt P33200) (assay: PBM E-score (8-mer binding enrichment) (E-score (-0.5 to 0.5)); higher = stronger / more preferred TF binding; most listed sequences are background and not binding sites). Conditions: protein concentration: 200 nM; construct: GST-full length.
T1 sequence: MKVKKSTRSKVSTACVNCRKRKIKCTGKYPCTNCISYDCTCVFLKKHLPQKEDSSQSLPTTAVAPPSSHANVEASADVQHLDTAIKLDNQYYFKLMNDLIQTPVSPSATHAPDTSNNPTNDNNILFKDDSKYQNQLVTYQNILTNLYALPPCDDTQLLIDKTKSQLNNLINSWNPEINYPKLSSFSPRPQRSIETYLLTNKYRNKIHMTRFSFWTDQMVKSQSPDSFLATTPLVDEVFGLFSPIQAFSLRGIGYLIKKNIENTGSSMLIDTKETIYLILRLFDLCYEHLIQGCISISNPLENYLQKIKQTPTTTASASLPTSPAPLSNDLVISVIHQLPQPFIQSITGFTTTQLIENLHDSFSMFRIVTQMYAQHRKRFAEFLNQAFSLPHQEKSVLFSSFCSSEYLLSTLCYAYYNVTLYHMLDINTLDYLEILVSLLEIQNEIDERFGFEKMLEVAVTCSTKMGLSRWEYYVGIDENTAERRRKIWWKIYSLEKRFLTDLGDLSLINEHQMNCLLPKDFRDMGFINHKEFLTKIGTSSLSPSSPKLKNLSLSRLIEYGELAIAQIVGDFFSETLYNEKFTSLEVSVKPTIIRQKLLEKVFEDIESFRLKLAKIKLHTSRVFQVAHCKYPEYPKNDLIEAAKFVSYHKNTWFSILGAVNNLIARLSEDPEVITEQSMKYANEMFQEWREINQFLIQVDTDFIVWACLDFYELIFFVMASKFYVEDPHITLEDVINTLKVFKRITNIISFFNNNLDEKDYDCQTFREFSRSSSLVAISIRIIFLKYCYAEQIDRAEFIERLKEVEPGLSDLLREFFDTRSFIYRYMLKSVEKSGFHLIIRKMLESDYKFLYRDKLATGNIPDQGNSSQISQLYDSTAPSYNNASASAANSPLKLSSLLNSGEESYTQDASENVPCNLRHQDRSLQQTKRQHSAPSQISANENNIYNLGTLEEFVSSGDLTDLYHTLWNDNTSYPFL
Description: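 Universal 'all 10-mer' protein binding microarrays (Agilent AMADID 015681) probed with GST-tagged S. cerevisiae TFs (full-length or DBD) made by in vitro transcription/translation (PURExpress), about 100-200 nM. Bound TF was detected with fluorescent anti-GST. Each ungapped 8-mer (which stands for itself and its reverse complement) is scored by the PBM enrichment score (E-score), a modified Wilcoxon-Mann-Whitney statistic from -0.5 to +0.5, computed with the Universal PBM Analysis Suite. Scale: above 0.35 generally sequence-specific binding.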

Row | Sequence | PBM E-score
1 | ACGATTAG | 0.00939
2 | GTGTTTAA | -0.0357
3 | GCAAAAGA | -0.106
4 | ATAGCCCG | 0.0917
5 | ATACGCGG | 0.247
6 | AGGGACTG | -0.128
7 | CTTCGCTC | 0.0008
8 | CTGCCGTC | 0.127
9 | GAAATCCA | 0.156
10 | GGTTAATA | 0.0847
11 | CAGCTGGG | -0.0276
12 | CTAACGAA | -0.0337
13 | GGGTGAAC | -0.0605
14 | CTGTTCGA | -0.168
15 | AAGTGATT | 0.0676
16 | ATTCCTCC | 0.202
17 | CTGTTGCC | -0.213
18 | GACTTTTA | -0.226
19 | ATAGACCG | -0.0966
20 | CGATAAGC | 0.0492
21 | TGGAGGAA | -0.0169
22 | AGATAGGG | -0.176

Row | Sequence | PBM E-score
23 | AGACCAAG | 0.00844
24 | GAATGCAA | -0.0017
25 | ACCGGTAC | -0.0109
26 | AAGTCATC | -0.123
27 | AGAAGGCC | 0.0185
28 | AAGAACGG | 0.217
29 | CTGCCAAA | -0.0154
30 | CGATTCTA | -0.129
31 | AAAAGTCC | 0.0705
32 | AGTCCACT | -0.18
33 | AAGAAGGT | -0.0424
34 | CTACCGCC | 0.00135
35 | AACCTTAT | -0.164
36 | ACTCCGGA | 0.456
37 | AACGGATA | 0.417
38 | CCAGTCAA | -0.159
39 | ACGGGCAC | 0.025
40 | CGCGAGGC | 0.112
41 | AATAGATC | 0.0595
42 | CCTTAGCC | -0.0458
43 | TCTAAAGA | -0.045
44 | ATGCGAAT | 0.0697

Row | Sequence | PBM E-score
45 | AATAATGA | 0.0123
46 | GAAAATGA | -0.0287
47 | GGTACTAA | 0.119
48 | ACAATCGT | -0.239
49 | GTGGCTAA | -0.168
50 | ACGATCCC | 0.183
51 | CCAAGCGG | 0.0916
52 | ACCTGATA | -0.0174
53 | CCCGTTCA | 0.0529
54 | CCAACAGG | -0.256
55 | CTATATAC | 0.145
56 | AAAGGGGG | -0.235
57 | TTGACAAA | -0.0749
58 | CGTCCATA | -0.00531
59 | GCGGTATA | 0.137
60 | GGCCACCA | 0.167
61 | CGGAATTA | 0.43
62 | AGAGCAAG | 0.0901
63 | ACACGAGT | 0.00719
64 | AGAGATCC | 0.117
65 | CTAGCCGC | 0.0335
66 | CCACTTAC | 0.0485

Row | Sequence | PBM E-score
67 | GGCGCGCC | 0.302
68 | ACTACAAT | 0.131
69 | ATTGCAAG | -0.0528
70 | AGATCACA | -0.0938
71 | AAGGCTAT | -0.191
72 | AGGCAGAA | -0.0494
73 | CCCGAAAG | 0.193
74 | CATGTGGC | -0.0621
75 | CGATCTAC | -0.00638
76 | GTTGCTAA | 0.112
77 | CTGTGAAG | -0.22
78 | CCCTGTGA | -0.229
79 | CCTGTTAC | -0.065
80 | CGAACAGC | -0.095
81 | ATTTCCCA | 0.0046
82 | ATAACACG | 0.0432
83 | AGGCATCC | -0.138
84 | GGAAGTTA | 0.191
85 | AATCAAAC | 0.108
86 | GGTTCATA | -0.0681
